# Results from publication PMC12136788.
# The list shows a part of the results.
# T1: UNK ZnF1-3 (human, UniProt Q9C0B0 31-174)
# T1 sequence: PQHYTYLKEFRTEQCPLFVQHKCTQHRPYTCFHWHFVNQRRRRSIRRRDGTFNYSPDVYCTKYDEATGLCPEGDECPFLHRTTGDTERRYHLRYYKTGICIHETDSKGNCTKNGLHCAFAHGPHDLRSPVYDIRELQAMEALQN
# B1: chr4:128759998:128759999:+_ENSMUSG00000028793_ENSMUST00000168461|mus_hu|motif|central (ssRNA)
# RNA: GGGAGUUCUACAGUCCGACGAUCUGCACCAAGACUGGCUGUGUCUUUGGGGAAAAUUUCCUUUUGGACAUCGGCUUGAACUUCGGACCUGCUAUAUUUUCCCUUGCCACUGGAGAGAAUGCCGCCACUCAGCGUGCCCCCUGACAACAGAGGAUUGAGCAUCA
# B2: chr4:25749455:25749456:-_ENSG00000091490_ENST00000264868|hu_hu|hu_hu_hu_mus_False|18_68 (ssRNA)
# RNA: GGGAGUUCUACAGUCCGACGAUCGCACUAUGACCUCUAGAAAAAUCCACAGGGGGAAAAAAUGUAAACCAAUUUACAAUGUUAUCGCCUUCCCUGUGUGUGGAGUGUUUGUCUCAAUAUUUCAAGGAGCUGCUGGAUUUGGGACAACAGAGGAUUGAGCAUCA
# B3: chr2:158593201:158593202:-_ENSG00000115170_ENST00000434821|hu_mus|FALSE|FALSE (ssRNA)
# RNA: GGGAGUUCUACAGUCCGACGAUCUGAAAUCUUUGCUUCUAAAUCAGUAAUAUAUCGGGUGGUGUUGCAUGGGUAAUGGCUAAAUAUGUUCUGCAUACGAACUGAAAAGAAAGUUACAGUCUACACACAUUUAAAAAAAAAAAUCAACAGAGGAUUGAGCAUCA
# B4: chr2:198351390:198351391:-_ENSG00000144381_ENST00000345042|hu_hu|hu_hu_hu_mus_False|18_68 (ssRNA)
# RNA: GGGAGUUCUACAGUCCGACGAUCUCAUUCCCACCCUCCACAGAAAGGCUGCUUCUGAACUCUCAUGGUGGUGGCAAGCGCUACAGUCCUGAUGCUCACAGAACAGUAGAGAUGCCUCCUCAGUGAUAGUUGAAAGCAGGACACCAACAGAGGAUUGAGCAUCA
# B5: chrX:71549400:71549401:+_ENSMUSG00000019087_ENSMUST00000019231|mus_hu|mus_mus_mus_hu_False|28_78 (ssRNA)
# RNA: GGGAGUUCUACAGUCCGACGAUCGCAGUAGGAAGAGGGAAGCUCUUCAGUCCAGUGGUCACAAAACUGGGAAAGCAACAACACGGACACCGUCCCACCCUCAACCCUCUCAGGUGUACAGGGUCACACAAUCUGGGUCAAAGACAACAGAGGAUUGAGCAUCA
# B6: 56890377_56890497_5338_3pUTR_ENSMUSG00000055296_ENSMUST00000068792|mouse|control|control (ssRNA)
# RNA: GGGAGUUCUACAGUCCGACGAUCGUCUCAUGGUGGGCAGGGGCACGAUUCUGCCAGCUGAAGGUCGUUUACCUUUGGAAUCCGAGGGUCUGCUGAGAGCCCUGAGGGGGGUGGAGGCUGCUGCUGAUUCCUGCUGCUGCGUGUCAACAGAGGAUUGAGCAUCA
# Biological target: T1, UNK ZnF1-3
# Assay: nsRBNS (natural sequence RNA bind-n-seq); RBNS binding buffer (assumed for nsRBNS): 25 mM Tris pH 7.5, 150 mM KCl, 3 mM MgCl2, 0.01% Triton X-100, 500 ug/ml BSA, 20 U/ml SUPERase-In, 4 C; UNK is unkempt and MSI1 is Musashi-1; names of the RNAs are library labels; protein concentration not given here; high values mean tight binding
row,Binder,binding signal
1,B1,1.03 enrichment R
2,B2,1.22 enrichment R
3,B3,1.57 enrichment R
4,B4,0.954 enrichment R
5,B5,1.5 enrichment R
6,B6,1.28 enrichment R
